Drawing on PubChem BioAssay AID1346428 (National Center for Advancing Translational Sciences (NCATS), 2018), this text covers activation for 54 molecules.

The whole screen tested about 48,000 compounds, of which about 1,200 (2.5%) were called active. Not shown: some 2% with an inconclusive outcome.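 The calls were made as follows: active = activation of at least 60% and not above a set upper limit (about 1 call in 100 departs from these limits); inconclusive = activation of 40% to 60%, or above that upper limit; inactive = activation under 40%.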 This is one part of the list.

UniProt O75388, sequence (O75388 whole entry, looked up): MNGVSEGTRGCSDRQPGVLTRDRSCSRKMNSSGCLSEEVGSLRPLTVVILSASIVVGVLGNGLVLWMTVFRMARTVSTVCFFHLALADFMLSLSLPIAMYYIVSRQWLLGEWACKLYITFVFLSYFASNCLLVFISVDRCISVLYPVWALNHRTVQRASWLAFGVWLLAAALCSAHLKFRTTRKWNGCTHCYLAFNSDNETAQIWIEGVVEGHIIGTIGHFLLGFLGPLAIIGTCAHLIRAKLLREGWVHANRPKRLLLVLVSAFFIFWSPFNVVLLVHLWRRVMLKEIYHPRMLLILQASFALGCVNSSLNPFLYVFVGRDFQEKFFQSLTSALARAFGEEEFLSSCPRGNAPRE

In the experiment the target is Probable G-protein coupled receptor 32 (Homo sapiens) (UniProt O75388). Nature of the experiment: qHTS for Agonists of Human Resolvin D1 Receptor DRV1. The note with it: CHO-K1 GPR32 beta-arrestin PathHunter luminescence, 90 min; at 76.9 µM; hits give high values; zero percent set by DMSO-only wells. The method, boiled down:
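Using DMSO wells as EC0, agonist-induced signal was taken as chemiluminescence from beta-Gal reconstituted upon beta-arrestin recruitment to GPR32 in CHO-K1 cells after 90 min compound treatment.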
In the case of `COc1ccc(COC(=O)C2=C(C)NC(=O)CC2c2cccc(Cl)c2Cl)cc1` (centres undefined), the activation is inactive: 9.17%. As for `O=C(Nc1ccc(C(=O)N2CCN(c3ccccc3F)CC2)cc1)c1nsc2ccccc12`, the figure is inactive: -14.9%. With `CCOC(=O)N1CCc2c(sc3c2c(=O)n(-c2ccc(F)cc2)c(=O)n3CC(=O)c2ccc(Cl)cc2)C1`, the activation was inactive: -7.1%. For `CC(C)C(=O)OCc1cccc(OC(=O)[C@@H]2N3C(=O)[C@@H](NC(=O)Cc4ccccc4)[C@H]3SC2(C)C)c1`, the activation was inactive: -9.27%. Turning to `O=C(NCCc1ccc(Cl)cc1)c1ccc2c(c1)nc1n2CCOC1`, the activation is inactive: 2.56%. As for `CN(C)CCN(Cc1ccco1)C(=O)c1cc2c(s1)-c1ccccc1OC2`, the figure is inactive: -14.9%; as for `COc1ccc(-c2onc(C)c2C)cc1S(=O)(=O)Nc1cccc(C#N)c1`, inactive: 1.92%; as for `Cc1cccc(C(=O)NC2(C(F)(F)F)N=C(c3ccccc3)N(C3CCCCC3)C2=O)c1` (centres undefined), inactive: -24.9%.

Consider `COc1ccc([C@@H]2Sc3ccccc3NC(=O)[C@@H]2O)cc1`, for which the activation is inactive: -5.13%. On to `CCc1ccc(NS(=O)(=O)c2ccc(-c3cc(C)no3)cc2)cc1`, for which the activation is inactive: 20.3%. Turning to `CC(=O)C1=C(c2ccc(F)cc2)N(C(C)=O)n2c(nnc2C2CCCCC2)S1`, the activation was inactive: -20.9%.

Turning to `CCOc1ccc(C(=O)NCC(c2ccc(Cl)cc2)N2CCCCC2)cc1` (centres undefined), the activation is inactive: -12.3%. On to `COC(=O)[C@H]1[C@H]2C[C@@H]3c4[nH]c5cc(OC)ccc5c4CCN3C[C@H]2C[C@@H](OC(=O)COc2ccc(OC)cc2)[C@@H]1OC`, for which the activation is inactive: 22%. Turning to `COC(=O)c1ccc(NC(=O)CC2C(=O)N(c3cccc(F)c3)C(=O)N2CC(C)C)cc1` (centres undefined), the activation was inactive: 4.72%. On to `COc1ccc(NC(=O)Cn2nnnc2-c2ccccc2F)c(C)c1`, for which the activation is inactive: 0.281%. As for `CCCNC(=O)C1CCC(Cn2c(=O)c3sccc3n(CC(=O)N(CC)CC)c2=O)CC1` (centres undefined), the figure is inactive: -8.92%; as for `CCCN(CCC)CCNC(=O)CS(=O)Cc1nc(-c2ccc(OC)c(OC)c2)oc1C` (centres undefined), inactive: -6.32%. Regarding `Cc1ccc(-n2nc(C(=O)N3CCCCC3)c(=O)n(C)c2=O)cc1`, the activation was inactive: -12.4%. With `NCC(=O)O`, the activation is inactive: -6.04%. `COc1ccc(CN2C(=O)N(c3cccc(C)c3)C(=O)C2CC(=O)Nc2ccc(F)cc2)cc1OC` (centres undefined): the activation was inactive: -10.3%. For the molecule `Cc1ccc(CNC(=O)c2cc3cc(C)ccc3n2C)cc1`, the activation was inactive: 2.65%. With `COc1ccc(-n2c(=O)c3ccc(C(=O)NCc4ccc(C)cc4)cc3n(CC(=O)Nc3cccc(F)c3)c2=O)cc1` the figure was inactive: 18.6%. For `CNc1ccc(-c2nc(-c3ccccn3)no2)cc1[N+](=O)[O-]`, the activation is inactive: 0.956%. Consider `CN(Cc1ccccc1)C(=O)C(=O)Nc1ccc2nc3n(c(=O)c2c1)CCCCC3`, for which the activation was inactive: 15.8%.

In the case of `COc1cccc(C(=O)Nc2nc3c(s2)CCCC3)c1`, the activation was inactive: -0.387%.

Consider `CCOc1ccc(C2c3[nH]c4ccccc4c3CCN2C(=O)CSc2ccccc2)cc1` (centres undefined), for which the activation is inactive: -31.3%. In the case of `COCCCNC(=O)Cn1c(=O)n(-c2ccccc2)c(=O)c2c1c1cc(OC)ccc1n2C`, the activation is inactive: -19.7%. As to `CCOC(=O)c1cc(NC(=O)c2ccc(C)cc2)c(=O)n2c1oc1ccccc12`, the activation is inactive: 8.89%. Consider `CCOc1cc(CNCCSc2nnnn2C)ccc1OCc1ccc(Cl)cc1Cl`, for which the activation was inactive: 46.7%. On to `Cc1ccc(NC(=O)CN2C(=O)COc3ccc(S(=O)(=O)N4CCCCC4)cc32)cc1Cl`, for which the activation was inactive: -29.9%. As for `O=C(NCc1cccc(Cl)c1)c1cnc(N2CCCCC2)c2ccccc12`, the figure is inactive: -23.1%; as for `Cc1ccc(-c2ncc(Cl)cc2-c2ccc(S(C)(=O)=O)cc2)cn1`, inactive: -18.5%. As for `COc1ccc(CCNC(=O)Cn2c(=O)c3sccc3n(CC(=O)Nc3cccc(C(F)(F)F)c3)c2=O)cc1OC`, the figure is inactive: -14.1%; as for `Cc1ccc(-n2ncc(C(=O)NCCc3ccsc3)c2C2CCN(C(=O)OC(C)(C)C)CC2)c(C)c1`, inactive: -25.9%. As to `COC(=O)c1cccc(Nc2c(-c3ccc(SC)cc3)nc3nc[nH]n23)c1`, the activation was inactive: -28.2%. As to `CCc1ccc(C2N=C(N)Nc3nc4ccccc4n32)cc1` (centres undefined), the activation is inactive: 48.8%. Regarding `Cc1cccc(N2CCN(c3ncnc4onc(C)c34)CC2)c1C`, the activation was inactive: -0.0338%. For the molecule `COc1ccc(Cl)cc1NC(=O)CN(c1cccc(C)c1C)S(C)(=O)=O`, the activation is inactive: -1.23%. For `O=C(CCCCCn1c(=O)[nH]c2ccccc2c1=O)NCCc1ccccc1`, the activation was inactive: -13%. As for `Cc1cccc(S(=O)(=O)c2cn(Cc3ccc(F)cc3)c3cc(N4CCCCC4)c(F)cc3c2=O)c1`, the activation was inactive: -10.1%. Take `O=C(CSc1nc2c([nH]c3ccccc32)c(=O)n1-c1ccc(Cl)cc1)NCc1ccccc1`: the activation was inactive: 17.3%. As for `CCc1ccc(CNC(=O)CN2C(=O)CSc3ccc(S(=O)(=O)N4CCOCC4)cc32)cc1`, the figure is inactive: -18.2%; as for `COc1cccc(C(=O)N(Cc2ccc(N(C)C)cc2)Cc2ccco2)c1`, inactive: -29.1%; as for `CC1=C(C(=O)Nc2cc(Cl)ccc2C)C(c2ccccc2F)n2ncnc2N1` (centres undefined), inactive: -5.82%.

As for `CN1CCN(C(CNC(=O)C(=O)Nc2ccccc2C#N)c2ccc3c(c2)OCO3)CC1` (centres undefined), the activation was inactive: 9.03%. On to `CCc1ccccc1NC(=O)c1cc(-c2ccc(OC)cc2)on1`, for which the activation is inactive: 13.3%. As for `CCc1ccc(S(=O)(=O)NCc2cccn2Cc2cccc(C)c2)cc1`, the figure is inactive: -8.65%; as for `COc1ccc(CCNC(=O)CSc2cc(=O)n(C)c3ccccc23)cc1OC`, inactive: 5.84%. As to `CCn1c(=O)c(=O)n(CC)c2cc(N3CCCCC3)c(NC(=O)c3ccc(OC)c(OC)c3)cc21`, the activation was inactive: 11.4%. As for `COc1cc(C(=O)Nc2sc3c(c2C(N)=O)CCC(C)C3)cc(OC)c1OC` (centres undefined), the activation is inactive: 18.9%. Consider `Cc1ccc2sc(N(CCCN(C)C)C(=O)c3ccco3)nc2c1C`, for which the activation is inactive: -13.3%. In the case of `CC(C)CCCC(C)NCCC(C)C` (centres undefined), the activation was inactive: -4.44%. With `CCc1noc(-c2ccc(N3CCC(C)CC3)c([N+](=O)[O-])c2)n1` the figure was inactive: -20.9%.

For the molecule `Cc1cccc(OCCn2c(SCC(N)=O)nc3ccccc32)c1`, the activation was inactive: 11.3%.
